According to paper PMC4336329 (PLoS ONE, 2015):
Hit rate of the full screen: of about 310,000 compounds, about 14,000 (4.5%) showed an effect of 50% or more. The effect is printed as a negative number. Some of the results follow.

Biological target: human ether-à-go-go-related gene (hERG) potassium channel (human, UniProt Q12809)
Assay: primary screen, population patch clamp on CHO cells stably expressing hERG
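Further: peak tail current of the secondary pulse compared with the same well before compound.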

Chain of human ether-à-go-go-related gene (hERG) potassium channel (Q12809 whole entry, looked up): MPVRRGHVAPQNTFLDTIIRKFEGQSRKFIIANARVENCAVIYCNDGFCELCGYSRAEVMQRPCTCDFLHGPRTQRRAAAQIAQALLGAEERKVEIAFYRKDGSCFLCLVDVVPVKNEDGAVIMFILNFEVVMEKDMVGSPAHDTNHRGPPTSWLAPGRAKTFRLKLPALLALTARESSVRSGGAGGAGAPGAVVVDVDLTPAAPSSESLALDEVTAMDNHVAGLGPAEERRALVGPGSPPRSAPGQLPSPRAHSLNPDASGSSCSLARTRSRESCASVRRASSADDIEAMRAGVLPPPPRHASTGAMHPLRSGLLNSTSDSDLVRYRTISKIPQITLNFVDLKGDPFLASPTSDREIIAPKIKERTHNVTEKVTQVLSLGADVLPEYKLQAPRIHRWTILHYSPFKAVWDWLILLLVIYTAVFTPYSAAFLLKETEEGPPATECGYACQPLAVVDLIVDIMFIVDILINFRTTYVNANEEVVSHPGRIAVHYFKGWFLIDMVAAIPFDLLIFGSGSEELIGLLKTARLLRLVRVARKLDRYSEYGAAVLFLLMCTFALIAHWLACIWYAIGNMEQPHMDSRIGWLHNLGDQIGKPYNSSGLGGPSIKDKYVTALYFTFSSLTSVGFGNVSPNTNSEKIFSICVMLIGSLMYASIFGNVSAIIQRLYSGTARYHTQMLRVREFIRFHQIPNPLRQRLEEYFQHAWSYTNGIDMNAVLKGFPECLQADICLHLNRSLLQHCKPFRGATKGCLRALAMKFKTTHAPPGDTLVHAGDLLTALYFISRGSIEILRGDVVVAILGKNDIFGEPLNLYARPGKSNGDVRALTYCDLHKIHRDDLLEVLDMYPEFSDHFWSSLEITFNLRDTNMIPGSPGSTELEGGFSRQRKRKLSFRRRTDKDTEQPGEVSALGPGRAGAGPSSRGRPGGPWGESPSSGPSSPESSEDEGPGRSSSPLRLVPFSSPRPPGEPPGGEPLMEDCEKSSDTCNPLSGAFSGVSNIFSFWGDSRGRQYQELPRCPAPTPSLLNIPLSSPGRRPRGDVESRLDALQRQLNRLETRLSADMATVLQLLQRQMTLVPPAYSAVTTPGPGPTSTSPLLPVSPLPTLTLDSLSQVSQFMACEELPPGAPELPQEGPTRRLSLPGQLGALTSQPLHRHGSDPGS

SMILES | hERG current change (%, negative = inhibition) at 10uM [%]
COc1cc(/C=C/C(=O)NC(C)(C)C)ccc1OCc1ccccc1 | 6.47
CSc1c(CC(=O)NCCCO)n(Cc2ccccc2)c2ccccc12 | -6.25
CCOC(=O)c1ccc(NC(=O)Nc2ncc(Cl)cc2Cl)cc1 | 20.3
COc1ccc(C2=NS(=O)(=O)N(C)C(C(=O)Nc3ccc(C)cc3)=C2)cc1 | -2.89
Cc1ccc(CNC(=O)c2nnn(CC(=O)Nc3cc(C)cc(C)c3)c2N)cc1 | 8.73
COc1ccc(N2CCN(C(=O)c3csc4ccccc34)CC2)cc1 | -7.41
O=C(CSc1nc2ccccc2c2c1CCCC2)N1CCOCC1 | -22.1
CC(C)c1nc(=S)c2ccccc2[nH]1 | -17.1
CCCN(CC1COc2ccccc2O1)C(=S)Nc1ccc(C)cc1 (stereo not shown) | -11.9
O=C(COC(=O)c1ccc2c(c1Cl)C(=O)c1ccccc1C2=O)NC1CCCCC1 | 17.4
Cc1cccc(-n2c(N)cc(=O)nc2SCC(=O)Nc2cc(C)on2)c1 | -3.48
CCOC(=O)N(C)S(=O)(=O)c1ccccc1[N+](=O)[O-] | 11.1
CCn1c(SCC(=O)N2c3ccccc3Sc3ccccc32)nnc1-c1ccco1 | -20.8
O=C(Nc1ccccc1)N1CCCN(Cc2ccccc2F)C1 | -8.48
Cc1ccc(Cn2nnc3c(=O)[nH]c(C(=O)NCc4ccco4)nc32)cc1 | -19
Cc1ccc(NC(=S)NC2CC3CCCC(C2)N3Cc2cccs2)cc1 (stereo not shown) | -56.5
CCC(=O)Nc1ccc(S(=O)(=O)Nc2c(C)nc3nc[nH]n3c2=O)cc1 | 1.56
O=C(CCCn1cncn1)N1CCCC(Nc2ccc(F)cc2)C1 (stereo not shown) | 11.4
CC(O)CSc1nc2c(c(=O)n(C)c(=O)n2C)n1CCCc1ccccc1 (stereo not shown) | -18.2
CSc1sc(-c2n[nH]c(=S)n2C)c2c1C=CCC2 | -56.8
Cc1ccc(C(=O)N/C(=C\c2ccco2)C(=O)NCCCn2ccnc2)cc1 | -64.3
COc1ccc(C(=O)N/C(=C\c2cn(C)c3ccccc23)C(=O)OCCN(C)C)cc1 | -25.1

SMILES | hERG current change (%, negative = inhibition) at 10uM [%]
O=C(Cn1nnc2ccccc2c1=O)NCc1ccco1 | 4.57
Cl.OC(COCc1ccccc1)CN1CCN(Cc2ccc3c(c2)OCO3)CC1 (stereo not shown) | -45
O=C(CCCCCn1c(=S)[nH]c2cc3c(cc2c1=O)OCO3)N1CCN(C2CCCCC2)CC1 | -2.7
CCCCN(C(=S)Nc1cccc(C)c1C)c1c(N)n(CCC)c(=O)[nH]c1=O | 9.45
Cc1ccc(N(C)C(=O)Oc2cccc3ccc(C)nc23)cc1 | -6.89
CCCCNC(=S)N(C)/N=C/c1c(F)cccc1F | 0.733
O=C(C1CCCCC1)N(Cc1ccccc1)c1ccccn1 | 1.25
COC(=O)CCC(=O)OC1(C)C(=O)C2=CN(c3ccc(OC)cc3)C(c3ccc(OC)cc3)=CC2=C(Br)C1=O (stereo not shown) | -9.54
COCCCNC(=O)C1CCC(CNS(=O)(=O)c2ccc(OC)cc2)CC1 (stereo not shown) | 1.4
CCN(CC)C(=O)CN1C(=O)/C(=C/c2ccccc2)SC1=S | -3.27
CC(C)CN(C(=O)CN1C(=O)C2CCCCC2C1=O)c1c(N)n(Cc2ccccc2)c(=O)[nH]c1=O (stereo not shown) | -0.636
CCC(=NCCc1ccccc1)C1=C(O)CCC1=O | 14.8
CC(=O)N/C(=N\OCc1ccccc1Cl)c1nonc1NC(C)=O | -11
CCN(CC)S(=O)(=O)c1ccc(C(=O)NC(C)(C)C)cc1 | 19.1
Cc1ccc(S(=O)(=O)N2C=CC(C(F)(F)F)=NCC2)cc1 | 6.08
Cc1ccc(CC(=O)O/N=C(\N)Cc2ccc([N+](=O)[O-])cc2)cc1 | 0.827
COc1ccc(NC(=O)[C@@H]2CC=C[C@@H]3CCN(C4CCCCC4)C(=O)[C@@H]32)cc1 | 3.17
CCOC(=O)C1CCCN(C2=NC(=O)/C(=C/c3ccc(OC)c(OC)c3)S2)C1 (stereo not shown) | -22.8
COc1ccc(/C=C(\NC(=O)c2ccccc2)C(=O)N2CCCCC2)cc1OC | 4.02
O=C(CSc1nc2ccccc2o1)NCCOc1ccccc1 | -2.26
Cc1cccc(NC(=O)CSCC(=O)Nc2ccccc2N2CCCC2)c1 | -90
COc1ccc(C2OC34CCCCC3C(C#N)(C#N)C2(C#N)C(=N)O4)cc1 (stereo not shown) | -0.964

SMILES | hERG current change (%, negative = inhibition) at 10uM [%]
Cc1ccc(CS(=O)Cc2ccc(C(=O)NCc3ccc4c(c3)OCO4)o2)cc1 (stereo not shown) | -28.9
Cc1nnc(SCCCn2c(N3CCN(c4ccccc4)CC3)nc3c2c(=O)[nH]c(=O)n3C)s1 | -28.5
COc1ccc(N2C(=O)CC(NNc3nc4ccccc4s3)C2=O)cc1 (stereo not shown) | 12
CCC(Cc1ccccc1)NC(=O)Cn1cccc1C(=O)c1ccccc1 (stereo not shown) | 6.83
CCCCCCC(Cl)(Cn1ccnc1)c1ccccc1.O=[N+]([O-])O (stereo not shown) | -18.3
Cc1ccc2c(c1)NC(=O)C(CC(=O)N(C)Cc1ccccc1)O2 (stereo not shown) | -5.2
N#C/C(=C(/O)c1cccs1)c1nc2ccccc2[nH]1 | 12
COc1ccc(NC(=O)/C(C#N)=C\c2ccc(N3CCOCC3)o2)cc1 | 1.89
O=C(NNC(=O)c1cc2ccccc2cc1O)Nc1ccc(Br)cc1 | 7.16
CCCCCCNc1cc2n(c(=O)n1)CCc1cc(OC)c(OC)cc1-2 | -46.7
CC(C)CN(C)Cc1c(C(=O)N2CCc3ccccc3C2)nc2ccc(Cl)cn12 | -53.2
COc1ccccc1CN(CC(=O)NCc1ccc(F)cc1)C(=O)c1csnn1 | -35.3
CNS(=O)(=O)c1cccc(C(=O)OCC(=O)C23CC4CC(CC(C4)C2)C3)c1 | -5.22
CC(C)(C)N=Cc1c(O)ccc2oc3c(c12)CCCC3 | 30.8
CN(c1ccccc1)c1nc(N)c([N+](=O)[O-])c(NC2CCCCC2)n1 | 13.4
CCOC(=O)c1cc2c(N)c(C(=O)c3cc(C#N)c(SC)nc3C)sc2nc1C | -0.985
CCc1ccc(OCCOC(=O)Nc2ccccc2)cc1 | 14.6
O=C(Cn1cnc2ccccc2c1=O)Nc1cccc(-c2nnc3n2CCCCC3)c1 | 0.387
Clc1ccccc1Cn1nnc2c(N3CCCC3)ncnc21 | -12.5
CCC(=O)N(CCc1ccccc1C)Cc1cc2cc3c(cc2[nH]c1=O)OCO3 | -3.05
O=C(O)CCN1CCN(S(=O)(=O)c2ccc3ccccc3c2)CC1 | 14.1
CC(=O)NC1(C(F)(F)F)N=C(c2ccccc2)NC1=O (stereo not shown) | 0.264

SMILES | hERG current change (%, negative = inhibition) at 10uM [%]
COc1ccc(/C=C2/C(=O)N(c3nc4ccccc4s3)N=C2CSc2ccc(Cl)cc2)cc1 | 1.45
COc1cccc(NC(=O)CS(=O)(=O)c2cn(CC(=O)N3CCOCC3)c3ccccc23)c1 | 6.05
Cc1ccc(Nc2nc3ccccc3c(=O)s2)cc1C | 6.94
O=C(N(c1ccccc1)c1ccccc1)n1ccnc1 | -10.5
CCc1cccc(C)c1NC(=O)Nc1c(Br)cnn1C | 25.7
Cc1ccc2c(c1)sc(-c1ccc(N(C)C)cc1)[n+]2C.[I-] | -60
c1ccc(C(c2ccccc2)c2noc(CN3CCN(C4CCCC4)CC3)n2)cc1 | -70.1
CC(=O)NC(=S)Nc1cc(C(F)(F)F)ccc1N1CCOCC1 | -30.7
CP(C)(=O)CCC(=O)O | 9.22
Cc1ccc(Sc2cc(C)nc(-c3ccccn3)n2)cc1 | -21.2
Cc1nn(-c2ccccc2)c(Cl)c1C(=O)OC(C)C(=O)Nc1ccc2c(c1)OCO2 (stereo not shown) | 8.26
COc1ccc(C)cc1S(=O)(=O)N(C)CC(=O)Nc1ccccc1 | -4.57
CCNc1ccc(Br)cc(C(=O)/C=C/c2ccccc2Cl)c1=O | -12
O=C(CSc1ncccc1-c1nc2ccccc2[nH]1)NC1CC1 | -2.91
O=C(O)CNC(=O)c1ccc(NC(=O)/C(=C/c2ccccc2)NC(=O)c2ccccc2Br)cc1 | 19.3
O=C(CSc1nnc(C2CC2)n1CC1CCCO1)Nc1ccccc1Cl (stereo not shown) | 7.68
CCc1nnc(NC(=O)c2cccc(S(=O)(=O)N3CCCCC3)c2)s1 | 25.2
O=c1[nH]c2cc3c(cc2cc1CN(CCN1CCOCC1)C(=S)NCC1CCCO1)OCO3 (stereo not shown) | -15.2
CC1(C)C2([N+](=O)[O-])CN3CC1([N+](=O)[O-])CN(C2)C3c1ccccc1 (stereo not shown) | 28.7
CC(=O)c1cn(CC(=O)Nc2cccc(C)c2C)c2ccccc12 | 20.6
O=C(NCC1CCCO1)C(=O)NCC1CCCN1S(=O)(=O)c1ccccc1 (stereo not shown) | 14.2
CCOc1ccc(CC(=O)NNC(=S)NC2CCCCC2)cc1OCC | 0.59
